{"source": "PubChem BioAssay AID504466", "about": "(National Center for Advancing Translational Sciences (NCATS), 2011)", "note": "Out of some 330,000 compounds screened, about 4,200 (1.3%) were called active. Inconclusive results, whose numbers are uncertain, are shown with a selection of clear calls. The call rests on the fitted dose curve; in most records, active means well fitted activation curve with a large enough effect; inconclusive means small, poorly fitted or top-dose-only effect; inactive means no such curve, though single readings can be large or run the other way. Where the call is inconclusive, the potency comes from a doubtful curve fit. Potency means the concentration at half of the fitted maximal effect; tags describe the fitted curve by direction and shape."}
{"test": "qHTS screen for small molecules that induce genotoxicity in human embryonic kidney (HEK293T) cells expressing luciferase-tagged ELG1; further: nearly all actives have a fitted effect of over 60% in size; on activity change, positive = activation: % of control where 0% means no effect", "details": "HEK293T ELG1-luciferase reporter, luminescence, 16 h; series mostly up to 46 µM; activity change, positive = activation: at the top concentration", "procedure,_shortened": "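HEK293T cells expressing luciferase-tagged ELG1 were treated with compound or DMSO for 16 hr at 37°C. Luciferase activity was then read after 30 min with ONE-Glo at room temperature; rising signal flags genetic stress.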"}
{"smiles": "O=C(Nc1ccc2c(c1)CCC2)c1cc(F)cc(F)c1", "Potency": "inconclusive: 4.11 µM [activator, partial curve, poor fit]"}
{"smiles": "Cc1cccc(NC(=O)c2ccc3nccnc3c2)n1", "Potency": "inconclusive: 7.3 µM [activator, partial curve]"}
{"smiles": "O=C(NC(=S)Nc1ncc(Br)cc1Br)c1ccccc1", "Potency": "inconclusive: 9.2 µM [activator, partial curve, poor fit]"}
{"smiles": "O=C(Cc1ccccc1)NC(NC(=O)Cc1ccccc1)c1cccc([N+](=O)[O-])c1", "Potency": "inconclusive: 23.1 µM [activator, single point]"}
{"smiles": "O=C(O)C(=O)/C(=C\\c1cccc(Cl)c1)c1ccc2ccccc2n1", "Potency": "inconclusive: 14.6 µM [activator, partial curve]"}
{"smiles": "CCOC(=O)N1CCN(C(=O)c2cc(S(=O)(=O)N3CCc4ccccc43)ccc2OC)CC1", "activity change, positive = activation": "inactive: -1.61%"}
{"smiles": "COc1ccc(/C(N)=N/OC(=O)Cc2cccs2)cc1", "Potency": "inconclusive: 14.6 µM [activator, partial curve]"}
{"smiles": "Cc1ccc(C(=O)Nc2cccc(C(F)(F)F)c2)cc1NC(=O)c1nccnc1N", "Potency": "inconclusive: 18.3 µM [activator, partial curve, poor fit]"}
{"smiles": "COc1cc(/C=N/O)ccc1OCc1ccc([N+](=O)[O-])cc1", "Potency": "active: 9.2 µM"}
{"smiles": "CCOc1ccc2nc(N3CCOCC3)nc(C)c2c1", "Potency": "active: 9.2 µM"}
{"smiles": "COc1cc(OC)c2c(=O)cc(-c3cccnc3)oc2c1", "Potency": "inconclusive: 18.3 µM [activator, single point]"}
{"smiles": "O=C(CSc1nc2ccccc2o1)NCc1ccc2c(c1)OCO2", "Potency": "active: 20.6 µM"}
{"smiles": "O=C(/C(=C/c1ccc(Cl)cc1)c1nc2ccccc2[nH]1)c1cccs1", "Potency": "inconclusive: 4.61 µM [activator, partial curve, poor fit]"}
{"smiles": "CCc1nnc(NC(=O)CSc2nc3c(cc2C#N)CCC3)s1", "Potency": "inconclusive: 4.11 µM [activator, full curve]"}
{"smiles": "Fc1ccc(-c2csc(Nc3ccccn3)n2)cc1", "Potency": "active: 2.06 µM"}
{"smiles": "O=C(COC(=O)c1ccccc1-n1cnnn1)c1ccc(F)cc1", "Potency": "inconclusive: 11.6 µM [activator, partial curve]"}
{"smiles": "COc1ccc(OCc2cc(C(=O)NC(C)Cn3cncn3)no2)c(Cl)c1", "note": "(stereo not given)", "Potency": "inconclusive: 25.9 µM [activator, single point]"}
{"smiles": "Cc1ccc(C(=O)/C=C\\Nc2ccc(C)c(C)c2)cc1", "Potency": "inconclusive: 8.2 µM [activator, partial curve]"}
{"smiles": "COc1ccccc1-c1noc(-c2cccs2)n1", "Potency": "inconclusive: 9.2 µM [activator, partial curve]"}
{"smiles": "Cn1ccs/c1=N\\C(=O)Nc1cccc(Cl)c1", "Potency": "active: 5.17 µM"}
{"smiles": "CCc1ccccc1Nc1nc(N)nc(COC(=O)c2cccn2C)n1", "Potency": "inconclusive: 29.1 µM [activator, partial curve, poor fit]"}
{"smiles": "CCN(CC)C(=O)CSc1nnc(-c2cccc(OC)c2)o1", "Potency": "inconclusive: 35.5 µM [activator, single point]"}
{"smiles": "COCCN(C(=O)CSc1nnc(-c2cccc(F)c2)n1N)c1c(N)n(CC(C)C)c(=O)[nH]c1=O", "activity change, positive = activation": "inactive: 3.9%"}
{"smiles": "Cn1ccsc1=NC(=O)c1cccc(OC(F)F)c1", "Potency": "inconclusive: 16.4 µM [activator, partial curve]"}
{"smiles": "COc1ccc(CC(=O)N2CCc3cc(OC)c(OC)cc3C2C)c(OC)c1", "note": "(stereo not given)", "activity change, positive = activation": "inactive: -4.69%"}
{"smiles": "CC(C)N1CC(O)=C(c2nc3ccccc3[nH]2)C1=N", "Potency": "inconclusive: 16.4 µM [activator, partial curve]"}
{"smiles": "O=C(Nc1ccncc1)Nc1ccc(Br)cc1Cl", "activity change, positive = activation": "inactive: -7.65%"}
{"smiles": "CCOc1ccc2nc(COC(=O)c3ccncc3)c(C(=O)c3ccccc3)[n+]([O-])c2c1", "Potency": "inconclusive: 16.4 µM [activator, partial curve, poor fit]"}
{"smiles": "O=C(O)Cc1sc(Nc2ccccc2)nc1-c1ccc(Cl)cc1", "Potency": "inconclusive: 23.1 µM [activator, partial curve, poor fit]"}
{"smiles": "N/C(=N\\OC(=O)/C=C/c1ccccc1)c1ccncc1", "Potency": "inconclusive: 4.61 µM [activator, full curve]"}
{"smiles": "CCOC(=O)c1ccc(NC(=O)Nc2ccn(C)n2)cc1", "activity change, positive = activation": "inactive: 18%"}
{"smiles": "Cc1cc(C(=O)CSc2nnnn2-c2ccc(Cl)cc2)c(C)n1CC1CCCO1", "note": "(stereo not given)", "activity change, positive = activation": "inactive: 13.2%"}
{"smiles": "CC1CCc2nc(NC(=O)Nc3ccc4c(c3)OCO4)sc2C1", "note": "(stereo not given)", "Potency": "inconclusive: 4.11 µM [activator, full curve, poor fit]"}
{"smiles": "Cc1cc(/C=N/NC(=O)c2ccccc2F)c(C)n1-c1ccccc1", "Potency": "inconclusive: 1.64 µM [activator, full curve]"}
{"smiles": "Cc1cccc(NC(=S)c2nc3ccccc3s2)c1", "Potency": "inconclusive: 4.11 µM [activator, partial curve]"}
{"smiles": "COc1cccc(CNc2cnc3ccccc3c2)c1O", "Potency": "active: 11.6 µM"}
{"smiles": "CCC(C)(C)NC(=O)/C=C/c1cnc2ccccc2n1", "Potency": "inconclusive: 16.4 µM [activator, partial curve]"}
{"smiles": "Cc1ccc(Nc2ncccc2C(N)=O)cc1", "Potency": "inconclusive: 16.4 µM [activator, partial curve]"}
{"smiles": "Cc1ccc(S(=O)(=O)N(C)C)cc1NC(=O)COC(=O)Cc1ccccc1F", "activity change, positive = activation": "inactive: -0.955%"}
{"smiles": "Cc1ccc(C(=O)OCC(=O)c2ccccc2)cc1", "Potency": "active: 0.58 µM"}
{"smiles": "CC(C)[C@@H](NC(=O)C1CCC(CNC(=O)[C@H](Cc2ccccc2)NC(=O)OC(C)(C)C)CC1)C(=O)O", "note": "(stereo not given in full)", "activity change, positive = activation": "inactive: 0.577%"}
{"smiles": "Cc1ccc(C(=O)COC(=O)c2cnccn2)cc1C", "activity change, positive = activation": "inactive: 0.649%"}
{"smiles": "CCOc1ccc(N2CC(C(=O)Nc3c(C)n(C)n(-c4ccccc4)c3=O)CC2=O)cc1", "note": "(stereo not given)", "activity change, positive = activation": "inactive: -0.987%"}
{"smiles": "CCOC(=O)C1=NOC(CNc2ncc(C(F)(F)F)cc2Cl)C1", "note": "(stereo not given)", "activity change, positive = activation": "inactive: 0.153%"}
{"smiles": "Cc1ccc(C(=O)/C=C/c2ccc(F)cc2)o1", "Potency": "inconclusive: 23.1 µM [activator, partial curve, poor fit]"}
{"smiles": "Cc1cccc(N2C(=O)CC(N(O)c3ccccc3)C2=O)c1", "note": "(stereo not given)", "Potency": "inconclusive: 18.4 µM [activator, partial curve]"}
{"smiles": "CN(Cc1ccccc1)C(=O)COC(=O)c1cc([N+](=O)[O-])ccc1N1CCOCC1", "activity change, positive = activation": "inactive: 7.22%"}
{"smiles": "CCCCCCCC(=O)NN=C1CCN(Cc2ccccc2)CC1", "activity change, positive = activation": "inactive: 0.875%"}
{"smiles": "O=[N+]([O-])c1cccc(-c2noc(-c3ccco3)n2)c1", "Potency": "inconclusive: 6.51 µM [activator, partial curve]"}
{"smiles": "C/C(=N\\NC(=O)c1ccncc1)c1ccc(NC(=O)c2ccc(Cl)cc2)cc1", "Potency": "inconclusive: 18.3 µM [activator, partial curve]"}
{"smiles": "c1ccc2sc(Sc3ncnc4sccc34)nc2c1", "activity change, positive = activation": "inactive: 0.236%"}
{"smiles": "COC(=O)C1=C(O)/C(=C\\c2cc(C)n(-c3ccccc3F)c2C)N=C1C", "Potency": "inconclusive: 23.1 µM [activator, partial curve, poor fit]"}
{"smiles": "COc1cc(CNc2ccc(N3CCOCC3)c(C(=O)O)c2)ccc1OCC(N)=O", "Potency": "inconclusive: 32.6 µM [activator, partial curve, poor fit]"}
{"smiles": "Cc1c(C(=O)O)sc(=S)n1-c1ccc(Cl)cc1", "activity change, positive = activation": "inactive: -7.36%"}
{"smiles": "O=C(NCc1ccccc1)c1cccnc1Sc1ccccc1", "activity change, positive = activation": "inactive: -0.11%"}
{"smiles": "COc1ccc(-n2nc(C(=O)NCC(=O)N3CCCCC3)c3ccccc3c2=O)c(OC)c1", "Potency": "inconclusive: 23.1 µM [activator, partial curve, poor fit]"}
{"smiles": "CC(C)(C)NC(=O)COC(=O)c1snc(C(=O)NC2CCCCC2)c1N", "Potency": "inconclusive: 7.31 µM [activator, partial curve]"}
{"smiles": "CCn1cnc2cc(NCc3nc4ccccc4n3Cc3ccccc3)ccc21", "Potency": "inconclusive: 2.06 µM [activator, full curve]"}
{"smiles": "O=C(Nc1ccc(Br)cc1F)c1ccc2c(c1)OCCO2", "Potency": "inconclusive: 1.3 µM [activator, full curve, poor fit]"}
{"smiles": "COc1ccc2oc(=N)c(C(=O)Nc3ccc(F)cc3)cc2c1", "Potency": "inconclusive: 18.3 µM [activator, partial curve, poor fit]"}
{"smiles": "CCCS(=O)(=O)c1nc(S(=O)(=O)c2ccc(C)cc2)c(N2CCN(CC)CC2)s1", "activity change, positive = activation": "inactive: -6.13%"}
{"smiles": "COc1ccc(-c2cc(C(=O)Nc3cc(Cl)ccc3O)no2)cc1", "Potency": "active: 16.4 µM"}
{"smiles": "CCCCc1c(C)nc(Nc2ccc(OC)cc2)[nH]c1=O", "activity change, positive = activation": "inactive: -3.1%"}
{"smiles": "COc1ccccc1Nc1nc(-c2c(C)[nH]c3ccccc23)cs1", "activity change, positive = activation": "inactive: 11.3%"}
{"smiles": "CCOC(=O)c1c(N)sc(C(=O)Nc2ccccc2)c1C", "Potency": "inconclusive: 2.91 µM [activator, partial curve]"}
{"smiles": "O=C(CCl)c1ccc2c(c1)CCN2C(=O)C1CCCCC1", "Potency": "inconclusive: 14.6 µM [activator, partial curve]"}
{"smiles": "O=C(N/N=C/c1ccc2c(c1)OCO2)C(=O)Nc1cccc(Cl)c1", "Potency": "inconclusive: 13 µM [activator, partial curve, poor fit]"}
{"smiles": "COc1cc(O)c(C(CC(=O)N2CCN(c3ccccc3)CC2)c2ccc3c(c2)OCO3)c(OC)c1", "note": "(stereo not given)", "activity change, positive = activation": "inactive: -2.85%"}
{"smiles": "Cc1cccc(-c2noc(-c3ccno3)n2)c1", "Potency": "inconclusive: 20.6 µM [activator, partial curve, poor fit]"}
{"smiles": "CN(C)c1ccc(/C=C(\\C#N)c2ccccc2)cc1", "Potency": "active: 4.11 µM"}
{"smiles": "CC1CCC(NC(=O)C(=O)Nc2ccc3c(c2)OCO3)CC1", "note": "(stereo not given)", "Potency": "active: 4.11 µM"}
{"smiles": "Cc1nc(C)c(-c2ccc(SCC(=O)Nc3ccccc3)nn2)s1", "activity change, positive = activation": "inactive: -18%"}
{"smiles": "NC(=O)c1ccc(-c2ncc(-c3ccccc3)o2)cc1", "Potency": "active: 0.184 µM"}
{"smiles": "COc1cccc(NC(=O)CCCOc2cc(=O)n(C)c3ccccc23)c1", "Potency": "inconclusive: 16.4 µM [activator, single point]"}
{"smiles": "O=C(NCCOc1ccccc1F)c1ccc2c(=O)n3c(nc2c1)CCC3", "Potency": "inconclusive: 6.51 µM [activator, partial curve]"}
